Over roughly 33,000 sequences, “E-score (-0.5 to 0.5)” has its median near -0.016; the highest 2% begin near 0.32. The list shows a part of the results.
The sequences below were run against T1, Stp1 (UniProt B3LFK1) (assay: PBM E-score (8-mer binding enrichment) (E-score (-0.5 to 0.5)); higher = stronger / more preferred TF binding; most listed sequences are background and not binding sites). Settings: protein concentration: 200 nM; construct: GST-full length.
T1 sequence: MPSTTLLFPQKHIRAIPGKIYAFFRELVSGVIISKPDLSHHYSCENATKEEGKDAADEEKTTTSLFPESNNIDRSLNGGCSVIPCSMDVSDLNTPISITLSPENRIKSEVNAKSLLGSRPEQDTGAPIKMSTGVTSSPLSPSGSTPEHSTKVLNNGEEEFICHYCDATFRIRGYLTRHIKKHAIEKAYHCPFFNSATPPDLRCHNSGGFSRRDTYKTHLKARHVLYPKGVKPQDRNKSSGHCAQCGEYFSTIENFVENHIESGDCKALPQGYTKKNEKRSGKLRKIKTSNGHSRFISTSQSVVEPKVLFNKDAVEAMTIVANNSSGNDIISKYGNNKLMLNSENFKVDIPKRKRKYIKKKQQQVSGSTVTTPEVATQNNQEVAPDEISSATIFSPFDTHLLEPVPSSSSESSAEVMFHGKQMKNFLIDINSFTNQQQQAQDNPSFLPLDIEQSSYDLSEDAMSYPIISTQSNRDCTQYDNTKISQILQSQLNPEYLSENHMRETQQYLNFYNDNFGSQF
In short: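 For each ungapped eight-base word taken together with its reverse complement, the Universal PBM Analysis Suite assigned an E-score. Binding data came from GST-tagged yeast transcription factors, applied at about 100-200 nM, on universal all-10-mer Agilent arrays made double-stranded by primer extension. Fluorescent anti-GST marked bound protein, and scans were normalised with masliner.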

Row | Sequence | PBM E-score
1 | TGAAGTAA | -0.11
2 | GTAAGTAA | 0.00347
3 | CGAGTAGC | 0.0298
4 | GTAGATCA | 0.0688
5 | GAGATAAC | 0.0172
6 | ATAGAGAC | -0.182
7 | ATACAGAC | -0.0347
8 | ACTCACTA | 0.109
9 | ATCGGCAG | -0.00845
10 | ATACAACA | 0.0507
11 | GTAGGCTA | -0.0678
12 | AGAGCTCC | -0.239
13 | ACAAACGG | 0.352
14 | CCCTTATC | 0.0886
15 | TAGGTCGA | 0.0532
16 | GACAACGA | 0.0291
17 | ATCAATAC | 0.0444
18 | GAGATGCC | 0.108
19 | ATAGTGGA | -0.0133
20 | CATCGTGA | -0.0218
21 | CGTTCGTC | 0.0625
22 | CTGTGAAC | -0.122
23 | CTTTAGCC | 0.107
24 | GGCCCCTA | -0.282
25 | CAGTTAAG | 0.104

Row | Sequence | PBM E-score
26 | CCGGACCC | -0.175
27 | ACGGCTAC | 0.407
28 | ACCGGTCT | -0.445
29 | AGTTTCAG | 0.142
30 | AAGGACGC | 0.00448
31 | ATGAAAAA | 0.24
32 | AAGTGGGT | -0.0658
33 | ACCAACGT | -0.0513
34 | CGTGAAGC | -0.105
35 | TGAGGAAA | -0.0138
36 | AAGCGCGT | -0.116
37 | ACATTCGC | -0.0206
38 | AAGAGTAG | 0.0639
39 | CGACAAGA | 0.0663
40 | ATCCTTCC | -0.293
41 | CTCACTCA | 0.00832
42 | TGCGCGCA | 0.133
43 | CAGCATGC | -0.121
44 | ATGGCTCG | -0.0567
45 | GGCACTCA | -0.0219
46 | ATAGGGAA | -0.0545
47 | ACCCGCTC | -0.119
48 | GAATGCAC | 0.147
49 | CACAAGAG | 0.0773
50 | ATGGATCG | 0.0769

Row | Sequence | PBM E-score
51 | GCTGCTCA | -0.121
52 | CGCAAAGA | 0.117
53 | ATTAATGC | 0.0952
54 | GAAGCCAA | -0.0792
55 | AGAACTAC | 0.0599
56 | CACCGCTG | -0.187
57 | ACTATAGC | -0.156
58 | CTGTACAC | 0.0675
59 | ACGTTCAC | -0.167
60 | CGGAAATC | 0.0016
61 | CCAGATGG | -0.168
62 | CCATCTAC | -0.0688
63 | CTCGACGC | 0.142
64 | TAAGATTA | 0.0404
65 | AATGACAC | -0.105
66 | CCTAGCAC | -0.161
67 | AGGTCACG | -0.175
68 | GGTAGGAC | -0.258
69 | ATAGCGGC | 0.217
70 | ATATTAGC | 0.131
71 | AATGGCAA | 0.206
72 | AGACGCTA | -0.158
73 | CCCGGAAG | -0.139
74 | CCCGCCTC | -0.0165
75 | CCGGACAG | -0.0788

Row | Sequence | PBM E-score
76 | CATAGAGA | -0.033
77 | CAATTACA | 0.13
78 | ACCACCGC | -0.254
79 | TAGCAAGA | -0.0435
80 | GCTACTAC | 0.0099
81 | ATTTGGAC | 0.0361
82 | CGGTCATA | -0.0538
83 | AAGCACGT | 0.0443
84 | TACAATGA | -0.0864
85 | GGTGAGGA | 0.0236
86 | CTAAATAA | 0.221
87 | CCGCGACA | 0.17
88 | ATTACCCC | -0.206
89 | GCAATCAA | 0.0929
90 | AGCCCGGG | -0.25
91 | GCGGGGTA | -0.147
92 | AATCGCCC | 0.0762
93 | AGGATCAT | -0.122
94 | CTATTCCA | 0.13
95 | TCGGACGA | -0.0439
96 | ACTAAAAT | 0.0948
97 | AGCAACTG | 0.0945
98 | CTGGACAC | -0.303
99 | AACATTCT | 0.215
100 | AACTCGTG | 0.057

Row | Sequence | PBM E-score
101 | AAACTGTT | 0.129
102 | CAGAAGAA | -0.0777
103 | ATGCGGCG | 0.485
104 | AATCCAGA | 0.124
105 | GTCCTGAA | -0.0984
106 | CGTCGCCA | 0.154
107 | CTGCCTAC | 0.0708
108 | AGTCCGGG | -0.199
109 | ATCCAGGG | -0.185
110 | GCTATTCA | -0.0683
111 | GGACCCAA | -0.094
112 | TAACCGTA | -0.119
113 | GAGAGAAA | 0.0555
114 | CCCGCGCG | 0.328
115 | GGCCGGAC | -0.00323
116 | CGGGTGAA | 0.101
117 | GCCAGCTA | -0.185
118 | GACGGATC | -0.0791
119 | AATACGTG | 0.0963
120 | AGTATCTC | 0.142
121 | AAAACATA | 0.212
122 | GACTTTGC | -0.0595
123 | AAAACGTA | 0.0508
124 | CGTTCACC | -0.0967
125 | CGTGAACG | -0.0914

Row | Sequence | PBM E-score
126 | CCATTCCC | -0.206
127 | ACGCTATG | 0.0213
128 | CTAGGATA | -0.0856
129 | GCTTTAAC | 0.0688
130 | ATAAATTG | 0.226
131 | ATTGATTG | 0.178
132 | AAAAATAT | 0.247
133 | GCGATCAC | 0.0835
134 | CAAGGATG | -0.138
135 | AGACCAAC | -0.0615
136 | AAGAGCTA | -0.142
137 | CTTGGCGA | -0.124
138 | ACTCGCCC | -0.18
139 | CCAACCTC | -0.133
140 | GGCTCAAA | 0.266
141 | TAAGCGAA | 0.131
142 | AATCTTGC | 0.118
143 | ACATTTGA | 0.0715
144 | ACGGCCGG | 0.0865
145 | CTAAAGTC | -0.267
146 | TATAACCA | -0.0161
147 | ACTATTAC | 0.063
148 | CCTGGAGC | -0.18
149 | CATAGGCC | -0.225
150 | GTTGCAAC | 0.106

Row | Sequence | PBM E-score
151 | CTACATAA | -0.13
152 | AATGCCGG | 0.137
153 | TAATTAGA | -0.0189
154 | AAGAAACC | 0.0172
155 | ACACGTTC | -0.0175
156 | TGACATCA | 0.00273
157 | AGCCATTA | 0.0537
158 | GTCAGCAA | 0.0285
159 | ACCATCGA | -0.11
160 | ATGCTTGA | 0.0103
161 | AAAGACCC | -0.167
162 | ATCAGCAA | -0.067
163 | ATCACAAG | 0.0279
164 | ACTGGAGA | -0.15
165 | ATGCGCGA | -0.0609
166 | TCGATCCA | 0.0077
167 | GACGTGTA | -0.132
168 | AACACGAA | 0.116
169 | AAGATGCG | 0.0113
170 | CTCCCGGA | -0.245
171 | CTCTTTTC | -0.0026
172 | CTGAGAAA | -0.0403

— the supplement of paper PMC3334620
